# Source: the supplement of paper PMC3334620
# Whole data set: some 33,000 sequences, median “E-score (-0.5 to 0.5)” near -0.035, cut for the highest 2% near 0.35. The list shows a part of the results.
# Target: T1, Pdr3 (UniProt P33200)
# T1 sequence: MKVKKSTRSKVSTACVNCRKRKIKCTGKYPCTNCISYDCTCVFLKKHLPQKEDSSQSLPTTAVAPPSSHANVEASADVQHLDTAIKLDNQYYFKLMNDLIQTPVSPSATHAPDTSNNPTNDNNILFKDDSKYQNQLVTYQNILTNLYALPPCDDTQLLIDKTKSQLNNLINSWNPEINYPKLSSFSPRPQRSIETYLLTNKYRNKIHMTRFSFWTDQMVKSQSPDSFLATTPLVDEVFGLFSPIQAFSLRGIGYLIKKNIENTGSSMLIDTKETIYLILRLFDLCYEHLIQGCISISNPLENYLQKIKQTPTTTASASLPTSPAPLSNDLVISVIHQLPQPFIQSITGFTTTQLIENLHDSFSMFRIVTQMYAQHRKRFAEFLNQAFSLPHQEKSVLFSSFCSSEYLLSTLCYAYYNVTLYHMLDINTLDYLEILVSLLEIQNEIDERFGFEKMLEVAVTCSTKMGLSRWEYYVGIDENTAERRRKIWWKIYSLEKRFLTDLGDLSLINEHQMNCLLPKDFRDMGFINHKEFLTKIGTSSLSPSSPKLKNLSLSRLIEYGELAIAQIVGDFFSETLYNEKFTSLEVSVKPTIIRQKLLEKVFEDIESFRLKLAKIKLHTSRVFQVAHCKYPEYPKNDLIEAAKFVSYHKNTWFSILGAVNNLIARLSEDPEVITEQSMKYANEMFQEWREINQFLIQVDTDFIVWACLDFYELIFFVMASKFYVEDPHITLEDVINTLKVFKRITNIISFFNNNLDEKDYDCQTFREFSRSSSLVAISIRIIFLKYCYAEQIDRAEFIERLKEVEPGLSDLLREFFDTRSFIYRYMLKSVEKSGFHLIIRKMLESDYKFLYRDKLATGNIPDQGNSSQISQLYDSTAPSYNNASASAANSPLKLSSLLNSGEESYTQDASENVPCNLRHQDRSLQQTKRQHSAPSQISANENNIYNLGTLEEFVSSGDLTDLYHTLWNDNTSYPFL
# Assay: PBM E-score (8-mer binding enrichment) (E-score (-0.5 to 0.5)); higher = stronger / more preferred TF binding; most listed sequences are background and not binding sites
# Details: protein concentration: 200 nM; construct: GST-full length
# Summary of the method: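 Full-length yeast transcription factors or their DNA-binding domains, GST-tagged and expressed with PURExpress, were applied at about 100-200 nM to universal all-10-mer Agilent arrays. These arrays had been made double-stranded by primer extension on fresh or once-stripped slides. Detection used fluorescent anti-GST, normalisation used masliner, and E-scores for ungapped eight-base words pooled with reverse complements came from the Universal PBM Analysis Suite.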
row,Sequence,PBM E-score
1,GGTTATAA,0.0461
2,CAACCACG,-0.0699
3,AACCAAGG,-0.0461
4,GCCTCAAA,0.059
5,AAAGGCGT,-0.0847
6,CTAAGTGC,-0.127
7,CCATAGGG,-0.0909
8,GTCTGCGA,-0.13
9,AGATGATC,-0.0773
10,AGTCGTCG,-0.298
11,TGCAAGCA,-0.0791
12,CGTCATTC,0.165
13,ACCAGCTA,-0.142
14,ATTATCCC,0.185
15,ATGCGCAA,0.113
16,CGTGAAAG,-0.152
17,ACTGCCCA,-0.102
18,GTAGCTAA,-0.0587
19,CAGGCAGA,-0.195
20,CTAGCGGC,-0.078
21,GCCGCGTA,0.102
22,AGTAGGCC,0.00094
23,AACTGGTC,0.0148
24,AGAGGGTG,-0.181
25,CATGCTCA,-0.0827

row,Sequence,PBM E-score
1,AGCCTTCG,-0.0725
2,CATGCCTC,0.119
3,TTAACTAA,0.0269
4,AACCTGGG,-0.0982
5,GCAAAGTA,-0.0117
6,TCCCCACA,-0.257
7,AAGGTTGT,-0.0536
8,CCCGCACA,0.185
9,GCTTCCAA,-0.143
10,ACGGATCA,0.366
11,CCGGTATA,0.208
12,AAATTCTA,-0.215
13,GCTTTGCC,-0.0932
14,AGCGGCGA,0.197
15,AGTCAATA,-0.123
16,CTTCTATA,-0.229
17,CATACGAG,-0.0679
18,AATACCCT,0.0285
19,GCGCAGGA,0.00428
20,CCTTACCC,-0.178
21,AAAGCTTG,-0.188
22,GGGTTCTA,-0.0971
23,AAAAGCCC,0.073
24,AGTGAGGA,-0.091
25,ATTACCCG,0.24

row,Sequence,PBM E-score
1,ATGCTTCC,0.182
2,ACACGGCA,0.0539
3,CTCCGCTC,0.123
4,ACAGGCAG,-0.183
5,ACACCTGA,-0.127
6,GTTAGCGA,0.075
7,AAGGAATC,-0.0434
8,CACTGACA,-0.122
9,CATCAATG,0.0203
10,CTGTTCAC,-0.0853
11,CTCCGGTA,0.321
12,AAAGTCTG,-0.294
13,TCAGCTCA,0.0564
14,GTTGTGCA,-0.191
15,CCCACCCG,0.387
16,AACTTCGT,-0.0769
17,GTTTTTGA,0.038
18,ATGTACTC,-0.0746
19,ACCCAATG,-0.0796
20,ACGGCATC,0.138
21,GCCTTCTA,-0.163
22,AGCCTCAA,-0.18
23,ACCTTATC,0.0594
24,CCGGTGGC,0.264
25,AAGACGGT,-0.312

row,Sequence,PBM E-score
1,GCAATTTA,0.119
2,AGAGTGCC,-0.257
3,CGGCGGAG,0.372
4,CTAAGGGC,-0.294
5,TATGATAA,0.124
6,AAACGCAT,-0.257
7,TCGGGAAA,0.309
8,GTCTAATA,-0.336
9,ATAATCAA,0.0905
10,ATTTGACA,-0.176
11,CCATCCGA,0.245
12,ATGCGGCA,0.0388
13,GATCGCTA,0.0267
14,GCACTGGA,-0.129
15,AAAGTAGA,-0.237
16,CTCGACGA,-0.255
17,CCTGCTCG,-0.171
18,GCCAATCC,0.223
19,CTCAGGGA,-0.166
20,AGAAACCG,0.169
21,GTCTGATA,-0.122
22,GCAGGGGC,-0.0762
23,CGGATAAA,0.383
24,CCCGACTA,0.0876
25,TATTGGAA,-0.306

row,Sequence,PBM E-score
1,ACTTTACA,-0.00255
2,CAGCGCAC,-0.0543
3,ATTGCCGG,0.283
4,AGGCTCGG,0.0546
5,CGCTCTAC,-0.0833
6,CAAGCCTC,-0.14
7,TTCAGAAA,-0.195
8,AACAGGCC,-0.0503
9,ATGTAATG,0.073
10,CCAAACCC,0.0248
11,CGGGGCGC,0.215
12,ACGGCGGG,0.199
13,GGAGCAAA,0.0673
14,CACGGAGA,0.372
15,AACATGTT,-0.05
16,CGGGCACA,0.0163
17,CTCCAGGA,-0.249
18,GCCGATAA,0.0452
19,CGACCGCC,0.0233
20,TAAAATCA,-0.00537
21,ACCTCAAT,-0.101
22,TAATTGGA,-0.0764
23,AAGTTTCG,0.011
24,AAGTGATA,-0.0901
25,AGTACTTG,-0.162

row,Sequence,PBM E-score
1,CGAATATA,0.105
2,CGATCAGA,-0.184
3,CTAACAAC,0.0288
4,ACGTATAG,-0.206
5,AACTTACC,-0.0181
6,GACTAAAA,-0.0119
7,AGTCCCTA,-0.202
8,GGGTCAAA,0.0962
9,ATGCGCAG,-0.0838
10,ATAGGATA,-0.00772
11,GTTTCCAA,-0.274
12,ACCAATTC,0.0992
13,CGGCTCCA,0.21
14,ATTCCGCC,0.417
15,CAAACAGA,-0.00446
16,CCAGTGCG,-0.0932
17,CATGTTGC,-0.11
18,ATCTTTAG,0.0683
19,CCACTCGG,0.135
20,TATACGCA,-0.0511
21,AGTCGCGC,0.193
22,CCGATGAC,0.166
23,CGTCCTGC,-0.0454
24,CGATGACC,0.099
25,ACAGCGAT,-0.121

row,Sequence,PBM E-score
1,ATGATAAG,0.0887
2,AATAAGGT,0.0693
3,ACAAGCGT,-0.231
4,ATCTAGGA,-0.0865
5,CGCGAAAC,-0.00744
6,CGTACGTA,-0.265
7,AGCGCAGA,-0.0489
8,GTTAAGTA,-0.156
9,CTCATATA,0.0362
10,CGCATCCC,-0.0518
11,AATATCGA,0.143
12,CACGGGAG,0.0682
13,CAGCCGAA,0.0741
14,ACGGGCCT,0.0961
15,CGCCGGTA,0.13
16,AAACTATT,0.038
17,GATCCGGC,0.369
18,CTGATGCA,0.0307
19,ATGAATCC,0.121
20,GCATTCCA,-0.139
21,ATGGTGAA,-0.0127
22,AAAACTAA,-0.0512
